How the values were obtained:
[1] = enzyme stability of the peptide (activity in AU/ml after enzyme treatment); conditions: partially purified peptide treated with RNase, DNase, lysozyme, lipase and α-amylase, compared to peptide in molecular water
[2] = heat stability; conditions: exposure to 80° C. for 10, 15, 30 and 60 minutes

## peptide NI01: antimicrobial peptide (bacteriocin, SEQ ID NO:3) obtained from a Staphylococcal culture; C terminal sequence QSFEWIYKQIKKLWA (MAAFMKLIQFLATKGQKYVSLAWKHKGTILKWINAGQSFEWIYKQIKKLWA; NOI01 polypeptide)
[1]
  effect on activity of enzyme treatment: no effect
[2]
  activity retained: 100%

From US9428551B2, “Antimicrobial peptides” (priority 2009, dated 2016)
